Data taken from PubChem BioAssay AID1794842 (National Center for Advancing Translational Sciences (NCATS), 2023).
In all, about 2,800 compounds went through this assay and fewer than 10 were called active. Calls follow the shape of the dose curve; as a rule, active = well fitted curve in the direction sought with a large enough effect; inconclusive = small, poorly fitted or top-dose-only effect, or another doubt; inactive = no such curve, though single readings can be large or run the other way. This is one part of the list.

Each compound was assayed against Metallo-beta-lactamase type 2 (Klebsiella pneumoniae) (UniProt C7C422) (assay: qHTS to identify inhibitors of the New Delhi Metallo-beta-lactamase (NDM): Meropenem screen against the machine-based learning selections.). Settings: Purified NDM-1, meropenem hydrolysis, absorbance 300 nm; at 38.4 µM (top of the series) unless noted.
How it was run: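 Hydrolysis by 2 nM NDM-1 was followed by absorbance after >30 min compound preincubation in HEPES pH 7.0 buffer with 1 uM Zn2SO4. For nitrocefin (16.7 uM, 15 min, 485 nm) and meropenem (50 uM, 30 min, 300 nm), each substrate ran on separate plates.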
Also: % of control where 0% means no effect.

Sequence of UniProt C7C422 (C7C422 whole entry, looked up): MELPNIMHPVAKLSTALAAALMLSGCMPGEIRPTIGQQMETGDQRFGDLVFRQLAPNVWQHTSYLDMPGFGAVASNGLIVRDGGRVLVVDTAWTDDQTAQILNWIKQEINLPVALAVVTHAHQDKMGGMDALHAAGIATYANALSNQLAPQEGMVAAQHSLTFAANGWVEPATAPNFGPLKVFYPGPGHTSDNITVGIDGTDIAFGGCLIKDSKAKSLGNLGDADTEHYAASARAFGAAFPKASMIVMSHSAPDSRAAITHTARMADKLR

Activity change, negative = inhibition, inactive:
CCc1ncc(C(=O)N2CCN(c3ccc(Cl)c(Cl)c3)CC2)cn1 1.67%
Nc1ccc(-c2ccc(OCCn3ccnc3)cc2)cn1 9.17%
COc1ccccc1-c1ccc2ncc(Nc3cccc(O)c3)n2n1 17.8% [at 57.5 µM]
CC(C)NC(=O)N[C@H]1CCN2C(=O)c3cc(-c4ccccc4)ccc3NC(=O)[C@H]12 -3.67% [at 57.5 µM]
O=C(Cc1cccc(F)c1)NCc1nnc2ccc(-c3ccc(Cl)cc3)nn12 0.305%
Oc1ccccc1CN1CCNc2cc(Nc3cccnc3)ncc2C1 9.15% [at 57.5 µM]
O=C(NC1CCN(c2cc(-c3cccs3)[nH]n2)C1)c1cccc(OC(F)(F)F)c1 (stereo not drawn) 1.45%
CCO[C@H]1CN(C(=O)CCCc2nc(-c3ccccc3OC)no2)C[C@@H]1O 3.8%
Cc1cc(S(=O)(=O)NCC2CCOCC2)ccc1F -4.53%
O=C(CCc1ccc2c(c1)OCO2)N[C@H](c1cccs1)C1CC(O)C1 (stereo partly drawn) -0.11%
CC1=C[C@@H](CO)[C@H](C(C)C)C[C@H]1Cc1nnc(-c2ccc(N(C)C)cc2)o1 12.8% [at 57.5 µM]
Cc1cccc2c1nc1n2[C@@H](CNC2CCCCC2)COC1 -2.31% [at 57.5 µM]
C[S+](=O)([O-])c1cccc(NC(=O)Cc2c[nH]c3ncc(-c4cccnc4)cc23)c1 13.5% [at 57.5 µM]
CCc1nc2c(c(-c3ccc(Cl)cc3)n1)CCN(Cc1ccc(C#N)cc1)CC2 -0.038%
Cc1ncsc1C1N(C2CCN(Cc3cn(C)c4ccccc34)CC2)C(=O)C12CCCC2 (stereo not drawn) 1.18%
Cc1cccc(O[C@H]2COCCN(C(=O)c3ccc(C(F)(F)F)cc3)C2)n1 -2.61% [at 57.5 µM]
Cc1cc(OCCN2CCOCC2)c(C)c2c1CC[C@@H]([C@H](C)C(=O)NC(C)(C)C)C2 1.61% [at 57.5 µM]
Cc1cc(C[C@@H]2COC[C@@H]2NC(=O)CCCn2cnc3ccccc3c2=O)on1 -0.884%
Cc1cn(CC(=O)NC2CCOC3(CCOCC3)C2)c(=O)[nH]c1=O (stereo not drawn) -0.851%
Cc1cc(C)c(CNC(=O)c2nc(-c3ccccc3)cc3[nH]ccc23)c(=O)[nH]1 3.74% [at 57.5 µM]
COc1cc(C(=O)N2C[C@@H](C)[C@@](C)(O)C2)ccn1 1.44%
C[C@H]1[C@@H]2[C@@H](O)C([C@H](C)C(=O)N(C)CCC#N)CC[C@@]2(C)CC[C@@H]1NS(C)(=O)=O (stereo partly drawn) 0.164% [at 57.5 µM]
Oc1ccccc1CN1CCNc2cc(-c3ccccc3)ncc2C1 2.68% [at 57.5 µM]
Cc1ccsc1[C@@H]1CCN(Cc2cccn2-c2cccnc2)C[C@H]1O 0.257%
COCC(=O)N1CC[C@@H](CC(=O)O)[C@@H](CC2=NCCc3cc(OC)ccc32)C1 14.6% [at 57.5 µM]
O=C(CCc1cccnc1)N1CCCC(CCc2cccc(F)c2)C1 (stereo not drawn) -0.812%
O=C(NCc1cccc(Cl)c1)c1cc2c(s1)CCN(C(=O)c1ccccc1)C2 3.29%
NC(=O)CN1CCC(c2nc(-c3ccc4nc[nH]c4c3)no2)CC1 1.59%
NC(=O)c1cccc(-c2ccc3c(n2)CN(Cc2ccc(F)cc2)C(=O)CO3)c1 -0.257% [at 57.5 µM]
COc1ccc(-c2noc([C@@H]3Cc4nc[nH]c4CN3Cc3ccc(NC(C)=O)cc3)n2)cc1 10.7%
N#Cc1cccc(C(=O)Nc2ccc([C@H]3OCC(=O)N(C4CCOCC4)[C@@H]3CO)cc2)c1 1.47%
CC(C)C[C@@H](NC(=O)C1=C[C@@H](NC(=O)c2ccco2)[C@@H](O)[C@H](O)C1)C(N)=O 4.55% [at 57.5 µM]
CC(C)NC(=O)[C@@H]1C[C@H](N)CN1C(=O)c1ccc(-n2cnnn2)cc1 -0.07%
COc1ccc(S(=O)(=O)N2C[C@@H](F)[C@@H](OCc3nc4ccccc4o3)C2)cc1 1.3% [at 57.5 µM]
CCOC(=O)C1=C(C)N=C2SC=C(CC(=O)N3CCCCC3)N2C1c1cccc(OC)c1 (stereo not drawn) 2.27%
N#Cc1cccc(NC(=O)O[C@@H]2CO[C@H]3[C@@H]2OC[C@@H]3n2nnnc2-c2ccc(-c3ccccc3)cc2)c1 7.33%
C#CCNC(=O)[C@@H]1Cc2cn(Cc3cc(C)on3)c3cccc(c23)[C@H](CC(C)C)N1 3.45% [at 57.5 µM]
O=C(Nc1ccccc1)O[C@@H]1CO[C@H]2[C@@H]1OC[C@@H]2NC(=O)c1ccc(C(F)(F)F)cc1 2.28%
CC(C)CNC(=O)c1ccnc(-c2nnc3ccc(Nc4ccccc4)nn23)c1 5.19% [at 57.5 µM]
Cc1ccc(C2(O)CCN(CC(c3ccccc3)c3ccccc3)CC2)nc1 -0.731%
O=C(NC1CCCCC1)[C@H]1O[C@H](CCN2CCN(Cc3ccccc3)CC2)CC[C@@H]1O -2.78% [at 57.5 µM]
CC(=O)Nc1ccc(C(O)[C@H]2COCC(=O)N2Cc2ccccc2F)cc1 (stereo partly drawn) 0.957% [at 57.5 µM]
O[C@@H]1C[C@@H](c2nc(Cc3ccccc3)no2)N(Cc2cc3ccccc3o2)C1 6.85% [at 57.5 µM]
O=C(COc1ccccc1)N1CCNc2cnc(Nc3cccc(F)c3)nc2C1 6.97% [at 57.5 µM]
O=C(NC[C@H]1Cn2c(-c3ccccc3)cnc2CO1)C1CCOCC1 4.09% [at 57.5 µM]
O=C1N[C@@H]2CCN(S(=O)(=O)c3cccc(F)c3)[C@@H]2C(=O)N1c1ccc(F)cc1 -0.0746% [at 57.5 µM]
CC1(C(=O)NCCCn2ccnc2)COCc2cnc(Nc3ccccc3)nc21 (stereo not drawn) 0.432% [at 57.5 µM]
COCc1ccc(C(=O)N[C@@H]2COCC[C@@H]2OCc2c(C)noc2C)o1 -0.566%
